Data taken from the RNAGym collection of RNA variant scans (doi:10.7554/elife.90254).
The source gives no read counts; variants with many changes may rest on few reads.

B1: LINE1-mini (parent)
chain: GGCAGAGCUCAACACAGCGUGGCAAAGUGGCUGUGGCUAGACUGCC

Variants of: B1
Assay: self-cleavage, relative activity (ratio to wild type); higher = more cleavage; in vitro, sequencing; the parent is a self-cleaving ribozyme
GUCAGAGCUCAAAACGGCGUGGCAAAGUGGAUGUGGCUAGACUGCC [G2U C13A A16G C31A] showed a self-cleavage of 0.01. Variant GGCAGAGCUCAACACAGCGUCGCAAAGUUGCUGUGGCUUCACUGCC [G21C G29U A39U G40C] has a self-cleavage of 0.05. For GGCAGAGCUCAACAUAGCGUGGGAAAGUGGCUGUGGCUAGACCGCC [C15U C23G U43C], the self-cleavage was 0.11. GGGAGAGCUCUACACAGUGUGGCAAAGUGGCUGUUGCUAGACUGCC [C3G A11U C18U G35U] gave a self-cleavage of 0.04. For GGCCGAGCUCAACACAGCGUGGCAAAGAGGCUGUGGCUUGACUGCC [A4C U28A A39U], the self-cleavage was 0.04. Work on GGCAGAACUCAACACUGCGUGGCAAAGUGGCUGUGGCUGGACUGCC [G7A A16U A39G] yielded a self-cleavage of 0.1. In the case of GGCAGAGCUCAACUCAGCGUAUCAAAGUGGCUGUGGCUAGACAGCC [A14U G21A G22U U43A], the self-cleavage is reported as 0.27. GGCAGAGCUCAAGAAAGCGUGGCAACGUGACUCUGGCUAGACUGCC [C13G C15A A26C G30A G33C] gave a self-cleavage of 0.08. For GGCAGAGCUCCACACGGAGUGGCAAAGAGGCUGUGGCUAGACUGCC [A11C A16G C18A U28A], the self-cleavage was 0.02. Work on GGCCGAGUUCAACACAGCGUGGCAAAGUGGCUGUGGCUACACCGCC [A4C C8U G40C U43C] yielded a self-cleavage of 0.08. For GGCAGAGCUCAACACAGUGUGGCAAAGUGGCUGUGGAGAGACUGCC [C18U C37A U38G], the self-cleavage was 0. For GGCAGAGCUCAGGACAGCGUUGCAAAGUGGCUGUGGCUAGACUGCC [A12G C13G G21U], the self-cleavage was 0.03. GGCAGAGCUCAUCACAGCGUGCCAAACUGGCUGUGGCUGGACUGCC [A12U G22C G27C A39G] showed a self-cleavage of 0.02. GGCAGAGCACAACACAGCGUGGCAAAGUGGCUGUGGCUAGACAGCA [U9A U43A C46A] showed a self-cleavage of 0.28. Variant GGCAGAGCUCAACACAGCGGGGCAAAGUGGCUGUCGUUAGACUGCC [U20G G35C C37U] has a self-cleavage of 0.02. GGCAGAGCUCAACGUAGCGUGGGAAAGUGGCUGUGGCUAGACCGCC [A14G C15U C23G U43C] gave a self-cleavage of 0.01. Variant GGCAGAGCUCAGCACAACGUGGAAAAAUGGCUGCGGCUAGACUUCC [A12G G17A C23A G27A U34C G44U] has a self-cleavage of 0.01. Work on GGCAGAGCUCAACACAGCGUCGCAAAGUGAUUGUGGCUAGACGGAC [G21C G30A C31U U43G C45A] yielded a self-cleavage of 0.03. UCCAGAGCUCAACACAGCGUCGCAAAGUGGCUGUGGCUAGACUGCC [G1U G2C G21C] showed a self-cleavage of 0.05. For GGCACAGCUCAACACCGCGUGGCAAGGUGGCUCUGGCUAUACUGCC [G5C A16C A26G G33C G40U], the self-cleavage was 0.06. Work on GGCAGAGCUUAACACAGCGUCGCAAAGUGGCUGUUGCUAGACUACC [C10U G21C G35U G44A] yielded a self-cleavage of 0.03. Work on GGCAUAGCUAAACACCGCGUGGCAAAGUGGCUGUGGCUAGAUUGCC [G5U C10A A16C C42U] yielded a self-cleavage of 0.01. Variant GGCAGAGCUCUACACAUAGUGGCACAGUGGCUGUGGCUAGGAUGCC [A11U G17U C18A A25C A41G C42A] has a self-cleavage of 0. Variant GGCAGAGCUCCACACAGCGUGGCAAAGUGGCUGAUGCAAGACUGCC [A11C U34A G35U U38A] has a self-cleavage of 0. For GGCAGACCUCAAUACAGCGUGGUAAAGUGGCUGUGGCUAGACUGCC [G7C C13U C23U], the self-cleavage was 0.13. In the case of GGCAGAACUAAACACAGCGUGGCAAAUUGGCUGUGGCUAGACUGCG [G7A C10A G27U C46G], the self-cleavage is reported as 0.01. Variant GGCAGAUCUAAACACAGCGUGGAAAAGUGGCUGUGGCUAGAUUGCC [G7U C10A C23A C42U] has a self-cleavage of 0.01. Variant GGGAGAGCUCAACACAGCGUGGGAAAGUGGCUGUGGAUAGACUGCC [C3G C23G C37A] has a self-cleavage of 0.04. GGCAGAGCUCAACACAGCGUGGCAAAGUGGCUGUAGCUAGUCUACC [G35A A41U G44A] gave a self-cleavage of 0.01. For GGCAGAGAUCAAUUCUGCGGGGCGAAGUGGCUGUGGCUAGACUGCC [C8A C13U A14U A16U U20G A24G], the self-cleavage was 0.08. GGCAGGGCUCAACACAGCGUAGCAAAUUGGCUGUGGCUAGACUGCC [A6G G21A G27U] showed a self-cleavage of 0.1. GGCAGAGCUCAACACAGCGUGACAAAGUGGCUGUUGCUAGACUACC [G22A G35U G44A] showed a self-cleavage of 0.9. GGGAGAGCUCAACACAGCGUGGCAAAGUGGCUGUGGCUAGACCGAC [C3G U43C C45A] showed a self-cleavage of 0.06. With GGCAUAUGUCAACACAGCGUGGCAAAGUGGCUGUGGCUAGACUUCC [G5U G7U C8G G44U] the self-cleavage was 0.45. In the case of GGCAGAGCUCACCACAGCGUGGCAAAGUGUCUGUGGCUAUACUGCC [A12C G30U G40U], the self-cleavage is reported as 0.06. In the case of GGCAGAGCUCAACACAGCGUGGCAAAGUGGCUUAUGCUAGAAUGCC [G33U U34A G35U C42A], the self-cleavage is reported as 0.03. Work on GGCCGAGCACAACACCGCGUGGCAAAGUGGCUGUGGCUAGACUGCC [A4C U9A A16C] yielded a self-cleavage of 0.3. GGCAGAGCUCAACAAAGCGUUGCAAAGUGCCUGUGGCUAGACUGCC [C15A G21U G30C] gave a self-cleavage of 0.04. With GGCAGAGCUCAACGCAGCCUUGCAAAGUGGCUGUGGCUAGACUGCU [A14G G19C G21U C46U] the self-cleavage was 0.12. Variant GGCAGAGCUCAACACGGCGUGGCAAAGUAGCUGGGGCUAGACUGCC [A16G G29A U34G] has a self-cleavage of 0.07. GCCAGAGCUCAACACAGCGUGGCAAAGUGGAUGUGUCUAGAGUGCC [G2C C31A G36U C42G] showed a self-cleavage of 0.11. Variant GGCAGAGCCCCACACAGCGUGGCAAUGUGGCUGUGGCUAUACUACC [U9C A11C A26U G40U G44A] has a self-cleavage of 0. Work on AGCAGAGCUCAACACAGCGAGGCAAAGUGGCUGUGGCGAGACUGCC [G1A U20A U38G] yielded a self-cleavage of 0.01. In the case of GGCAGAGCCCAACACAGCGUGGCAAAGUGAGUGUGUCUAUAAUGCC [U9C G30A C31G G36U G40U C42A], the self-cleavage is reported as 0.01. GGCAGAGUUCAACACAGCAUGUGAAAGUGGCUGUGGCUAGACUGCC [C8U G19A G22U C23G] showed a self-cleavage of 0.21. GGCAGAGCUCAACACAGCGUGGCAAAGUGGCUGCGGCUAGACUACA [U34C G44A C46A] gave a self-cleavage of 0.01. Work on GGCAGAGCUGAACACAACGUGGCAAAGUGACUGUGGCUAGACUGGC [C10G G17A G30A C45G] yielded a self-cleavage of 0.03. Variant GGCAGAGCUCAACACAGCUUGGCACAGUGGCUGUGGCGAGACUGCG [G19U A25C U38G C46G] has a self-cleavage of 0. In the case of GGCAGAGCUCAACACAGCGCGGCAAAGUGGCUAUGGCUAGACUGCA [U20C G33A C46A], the self-cleavage is reported as 0.06. GUCGGAGCUCAACACAGCGUGGCAAAGUGGCUGUUGAUAGACUGCC [G2U A4G G35U C37A] showed a self-cleavage of 0.03. In the case of GGCAGAGCUCGACACAGCGGGGCAAAUUUGCUUUGGCUAGACUGCC [A11G U20G G27U G29U G33U], the self-cleavage is reported as 0.01. Work on GGCAGAGAUCAACACAGCGUGGCAAACUGGCUGUGGCUAGACUGGC [C8A G27C C45G] yielded a self-cleavage of 0.06. With GGCAGGGCUCUACACAGCGUGGCGAAGUGGAUGGGGUAAGACUGCU [A6G A11U A24G C31A U34G C37U U38A C46U] the self-cleavage was 0. GCCAGAGUUCAACACAGCAUGGCAAAGUGGCUGUGGCUAGACUGCC [G2C C8U G19A] gave a self-cleavage of 0.18. For GGAAGAGCUCAACGCAGCGUGGCAAAGUGGCUGUGGCUACACUGUC [C3A A14G G40C C45U], the self-cleavage was 0.11. CGCAGAGCUCAACACAGCGUGGCAAAGUGUAUGUGGCUAGACUGCC [G1C G30U C31A] gave a self-cleavage of 0.01.
